The list shows a part of the results. Antibody binding of pooled human sera (four to six donors per pool; dilution not stated) to peptides of the Trypanosoma cruzi antigen TSSA on microarrays. Quantile-normalised fluorescence in arbitrary units, mean of duplicate arrays; higher = more binding. No active / inactive call. The uninfected pools are read here as the healthy donors of the same country. The strongest signals lie near the top of the scale (about 60,000).
Tests used:
Assay in all cases: antibody binding signal (normalised fluorescence) (arbitrary fluorescence units); higher = stronger serum antibody binding to peptide
[1] = test system: pooled sera of chronic Chagas disease patients, Argentina
Protocol: (§1)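 Microarray of 15-residue peptides over residues 30-55 of Trypanosoma cruzi TSSAII, each with 1 to 10 substitutions at naturally variable positions, probed with one serum pool per country.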

[2] = test system: pooled sera of chronic Chagas disease patients, Bolivia
Protocol: as §1

[3] = test system: pooled sera of chronic Chagas disease patients, Brazil
Protocol: as §1

[4] = test system: pooled sera of chronic Chagas disease patients, Colombia
Protocol: as §1

[5] = test system: pooled sera of chronic Chagas disease patients, Mexico
Protocol: as §1

[6] = test system: pooled sera of chronic Chagas disease patients, USA
Protocol: as §1

[7] = test system: pooled sera of uninfected people, Argentina
Protocol: as §1

[8] = test system: pooled sera of uninfected people, Bolivia
Protocol: as §1

[9] = test system: pooled sera of uninfected people, Brazil
Protocol: as §1

[10] = test system: pooled sera of uninfected people, Colombia
Protocol: as §1

[11] = test system: pooled sera of uninfected people, Mexico
Protocol: as §1

[12] = test system: pooled sera of uninfected people, USA
Protocol: as §1

Sequence	antibody binding signal [1]	antibody binding signal [2]	antibody binding signal [3]	antibody binding signal [4]	antibody binding signal [5]	antibody binding signal [6]	antibody binding signal [7]	antibody binding signal [8]	antibody binding signal [9]	antibody binding signal [10]	antibody binding signal [11]	antibody binding signal [12]
STPPSGTEKKTATGG	40000	12100	27400	5070	8310	5660	975	418	182	131	213	269
DNKPAAGGTPSQPGA	206	655	7080	1360	263	388	299	525	1660	586	746	147
TENKTAAGETPSPSG	27400	330	526	195	307	2540	209	249	220	151	311	2080
PPSGKDNKTATGGAP	639	259	2490	2110	3780	2710	653	417	162	292	95.5	296
SGTENKPATGGAPSP	50600	29700	36100	655	1660	10200	978	2380	481	269	360	266
SGKENKTAAGEAPSP	3770	3300	17300	5470	4580	19100	7850	2830	311	537	638	190
STPPSGKDNKTATGE	14700	22000	11100	1790	19400	4390	400	661	224	378	98.4	125
TPPSGKDKKAATGGT	4460	280	519	446	39200	687	165	231	387	346	81.6	161
KKPATGETPSPSGAS	9140	3400	19100	176	286	17300	333	445	106	136	457	547
GKDNKTATGGAPSQS	670	262	928	2450	1390	1340	239	141	119	187	85.8	154
SGTDNKAATGGTPSP	666	1010	43600	937	506	228	216	711	1380	436	167	226
EKKTAAGGAPSQSGA	318	819	280	5930	450	786	170	728	196	177	291	551
PPSGTENKPATGGTP	47600	51500	50900	380	4740	22100	4350	2010	1050	878	647	1110
DNKAATGEAPSQPGA	30100	45800	45800	107	195	27600	260	150	224	177	222	132
TDKKPATGETPSQPG	29100	25300	40300	278	142	22000	224	562	374	246	1550	180
GKDNKTAAGGTPSPP	691	200	251	3360	639	1790	150	124	258	184	202	140
KDNKPAAGEAPSPSG	567	1320	22900	507	241	15600	331	417	176	258	330	97.7
KKAAAGGTPSQSGAS	206	241	214	2460	203	1160	249	118	1260	119	169	222
SGTEKKAAAGGTPSQ	956	368	930	9640	1220	2370	155	554	1330	186	142	207

Sequence	antibody binding signal [1]	antibody binding signal [2]	antibody binding signal [3]	antibody binding signal [4]	antibody binding signal [5]	antibody binding signal [6]	antibody binding signal [7]	antibody binding signal [8]	antibody binding signal [9]	antibody binding signal [10]	antibody binding signal [11]	antibody binding signal [12]
STPPSGKEKKTATGE	17800	1190	896	606	23800	1570	509	859	123	308	171	173
TPPSGKEKKAAAGEA	11600	318	527	825	10400	1340	422	475	90.8	291	81.4	122
GKDNKPAAGGTPSPS	845	254	733	1760	1920	1680	197	390	338	242	107	144
GTDNKAAAGETPSPS	214	332	31800	237	222	2840	134	694	804	116	384	1940
GKDKKAATGGTPSPP	388	421	184	678	693	663	161	71.2	148	253	89	112
GTDKKTATGEAPSPS	10500	19100	10900	1230	433	20400	201	182	277	96.6	210	120
SGTEKKPAAGGTPSQ	2850	330	7420	8710	2410	2450	184	1010	3130	157	445	1340
TDNKPATGEAPSPSG	43800	47000	49300	326	181	38300	847	616	347	122	277	193
GKDKKAATGEAPSPS	15100	3840	15800	1940	1720	18500	305	72.9	90.3	171	70.4	102
GKDKKTATGETPSQS	728	253	625	1450	1190	4920	160	110	108	92.6	78	98.3
TEKKTAAGGTPSPSG	1140	200	448	13200	693	2800	109	117	1060	293	420	385
KDNKPAAGGTPSQPG	214	170	1680	839	194	237	330	258	446	268	276	95.6
GKENKAAAGGAPSQP	825	233	7900	3530	2360	8450	302	94.6	93.4	105	86.2	94.7
KEKKAATGGTPSQSG	338	223	189	243	217	481	157	92.5	203	174	88.5	112
GKDKKTAAGGTPSPP	317	175	219	3120	464	1710	96.9	88.2	239	226	97.3	133
ISTPPSGKDKKAATG	18400	303	589	218	42700	450	123	324	107	153	95.4	112
ENKAATGGAPSPPGA	524	1300	3270	604	416	2600	314	140	188	183	128	179
NKTAAGGAPSQSGAS	346	252	2360	5230	2120	467	885	1200	666	318	661	1240

— the supplement of paper PMC10441789
